The other results are listed elsewhere or left out.
Columns and labels:
Assay in all cases: glycan array binding signal (z-score within array); higher = stronger binding
Conditions in all cases: glycan notation: IUPAC condensed, linker removed
[1] = target: Gal(b1-4)GlcNAc(b1-2)[Gal(b1-4)GlcNAc(b1-6)]Man(a1-6)[Gal(b1-4)GlcNAc(b1-2)Man(a1-3)]Man(b1-4)GlcNAc(b1-4)[Fuc(a1-6)]GlcNAc
Summary of the method: (§1)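 The Consortium for Functional Glycomics database supplied 3228 glycan arrays, of which those lacking an available protein sequence were dropped. The binding signal, a within-array Z-score, was averaged across arrays of the same protein sequence and across linkers. Negative scores can be read as non-binding.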

[2] = target: Gal(b1-4)GlcNAc(b1-2)[Gal(b1-4)GlcNAc(b1-6)]Man(a1-6)[GlcNAc(b1-4)][Gal(b1-4)GlcNAc(b1-2)Man(a1-3)]Man(b1-4)GlcNAc(b1-4)GlcNAc
Summary of the method: as §1

[3] = target: Gal(b1-4)GlcNAc(b1-2)[Gal(b1-4)GlcNAc(b1-6)]Man(a1-6)[GlcNAc(b1-4)][Gal(b1-4)GlcNAc(b1-2)[Gal(b1-4)GlcNAc(b1-4)]Man(a1-3)]Man(b1-4)GlcNAc(b1-4)[Fuc(a1-6)]GlcNAc
Summary of the method: as §1

[4] = target: Gal(b1-4)GlcNAc(b1-3)Gal(b1-3)GalNAc
Summary of the method: as §1

[5] = target: Gal(b1-4)GlcNAc(b1-3)Gal(b1-3)GlcNAc
Summary of the method: as §1

[6] = target: Gal(b1-4)GlcNAc(b1-3)Gal(b1-4)Glc
Summary of the method: as §1

[7] = target: Gal(b1-4)GlcNAc(b1-3)Gal(b1-4)GlcNAc
Summary of the method: as §1

[8] = target: Gal(b1-4)GlcNAc(b1-3)Gal(b1-4)GlcNAc(b1-2)Man(a1-3)[Gal(b1-4)GlcNAc(b1-3)Gal(b1-4)GlcNAc(b1-2)Man(a1-6)]Man(b1-4)GlcNAc(b1-4)GlcNAc
Summary of the method: as §1

[9] = target: Gal(b1-4)GlcNAc(b1-3)Gal(b1-4)GlcNAc(b1-2)Man(a1-3)[Gal(b1-4)GlcNAc(b1-3)Gal(b1-4)GlcNAc(b1-2)Man(a1-6)]Man(b1-4)GlcNAc(b1-4)[Fuc(a1-6)]GlcNAc
Summary of the method: as §1

[10] = target: Gal(b1-4)GlcNAc(b1-3)Gal(b1-4)GlcNAc(b1-2)[Gal(b1-4)GlcNAc(b1-3)Gal(b1-4)GlcNAc(b1-6)]Man(a1-6)[Gal(b1-4)GlcNAc(b1-3)Gal(b1-4)GlcNAc(b1-2)Man(a1-3)]Man(b1-4)GlcNAc(b1-4)GlcNAc
Summary of the method: as §1

[11] = target: Gal(b1-4)GlcNAc(b1-3)Gal(b1-4)GlcNAc(b1-2)[Gal(b1-4)GlcNAc(b1-3)Gal(b1-4)GlcNAc(b1-6)]Man(a1-6)[Gal(b1-4)GlcNAc(b1-3)Gal(b1-4)GlcNAc(b1-2)Man(a1-3)]Man(b1-4)GlcNAc(b1-4)[Fuc(a1-6)]GlcNAc
Summary of the method: as §1

[12] = target: Gal(b1-4)GlcNAc(b1-3)Gal(b1-4)GlcNAc(b1-3)Gal(b1-4)GlcNAc
Summary of the method: as §1

[13] = target: Gal(b1-4)GlcNAc(b1-3)Gal(b1-4)GlcNAc(b1-3)Gal(b1-4)GlcNAc(b1-2)Man(a1-3)[Gal(b1-4)GlcNAc(b1-3)Gal(b1-4)GlcNAc(b1-3)Gal(b1-4)GlcNAc(b1-2)Man(a1-6)]Man(b1-4)GlcNAc(b1-4)GlcNAc
Summary of the method: as §1

[14] = target: Gal(b1-4)GlcNAc(b1-3)Gal(b1-4)GlcNAc(b1-3)Gal(b1-4)GlcNAc(b1-2)Man(a1-3)[Gal(b1-4)GlcNAc(b1-3)Gal(b1-4)GlcNAc(b1-3)Gal(b1-4)GlcNAc(b1-2)Man(a1-6)]Man(b1-4)GlcNAc(b1-4)[Fuc(a1-6)]GlcNAc
Summary of the method: as §1

[15] = target: Gal(b1-4)GlcNAc(b1-3)Gal(b1-4)GlcNAc(b1-3)Gal(b1-4)GlcNAc(b1-2)[Gal(b1-4)GlcNAc(b1-3)Gal(b1-4)GlcNAc(b1-3)Gal(b1-4)GlcNAc(b1-6)]Man(a1-6)[Gal(b1-4)GlcNAc(b1-3)Gal(b1-4)GlcNAc(b1-3)Gal(b1-4)GlcNAc(b1-2)Man(a1-3)]Man(b1-4)GlcNAc(b1-4)[Fuc(a1-6)]GlcNAc
Summary of the method: as §1

[16] = target: Gal(b1-4)GlcNAc(b1-3)Gal(b1-4)GlcNAc(b1-3)Gal(b1-4)GlcNAc(b1-3)Gal(b1-4)GlcNAc(b1-2)Man(a1-3)[Gal(b1-4)GlcNAc(b1-3)Gal(b1-4)GlcNAc(b1-3)Gal(b1-4)GlcNAc(b1-3)Gal(b1-4)GlcNAc(b1-2)Man(a1-6)]Man(b1-4)GlcNAc(b1-4)GlcNAc
Summary of the method: as §1

[17] = target: Gal(b1-4)GlcNAc(b1-3)Gal(b1-4)GlcNAc(b1-3)Gal(b1-4)GlcNAc(b1-3)Gal(b1-4)GlcNAc(b1-2)Man(a1-3)[Gal(b1-4)GlcNAc(b1-3)Gal(b1-4)GlcNAc(b1-3)Gal(b1-4)GlcNAc(b1-3)Gal(b1-4)GlcNAc(b1-2)Man(a1-6)]Man(b1-4)GlcNAc(b1-4)[Fuc(a1-6)]GlcNAc
Summary of the method: as §1

[18] = target: Gal(b1-4)GlcNAc(b1-3)Gal(b1-4)GlcNAc(b1-3)Gal(b1-4)GlcNAc(b1-3)Gal(b1-4)GlcNAc(b1-2)[Gal(b1-4)GlcNAc(b1-3)Gal(b1-4)GlcNAc(b1-3)Gal(b1-4)GlcNAc(b1-3)Gal(b1-4)GlcNAc(b1-6)]Man(a1-6)[Gal(b1-4)GlcNAc(b1-3)Gal(b1-4)GlcNAc(b1-3)Gal(b1-4)GlcNAc(b1-3)Gal(b1-4)GlcNAc(b1-2)Man(a1-3)]Man(b1-4)GlcNAc(b1-4)[Fuc(a1-6)]GlcNAc
Summary of the method: as §1

[19] = target: Gal(b1-4)GlcNAc(b1-3)Gal(b1-4)GlcNAc(b1-3)Gal(b1-4)GlcNAc(b1-3)Gal(b1-4)GlcNAc(b1-3)Gal(b1-4)GlcNAc(b1-2)Man(a1-3)[Gal(b1-4)GlcNAc(b1-3)Gal(b1-4)GlcNAc(b1-3)Gal(b1-4)GlcNAc(b1-3)Gal(b1-4)GlcNAc(b1-3)Gal(b1-4)GlcNAc(b1-2)Man(a1-6)]Man(b1-4)GlcNAc(b1-4)GlcNAc
Summary of the method: as §1

[20] = target: Gal(b1-4)GlcNAc(b1-3)Gal(b1-4)GlcNAc(b1-3)Gal(b1-4)GlcNAc(b1-3)Gal(b1-4)GlcNAc(b1-3)Gal(b1-4)GlcNAc(b1-2)Man(a1-3)[Gal(b1-4)GlcNAc(b1-3)Gal(b1-4)GlcNAc(b1-3)Gal(b1-4)GlcNAc(b1-3)Gal(b1-4)GlcNAc(b1-3)Gal(b1-4)GlcNAc(b1-2)Man(a1-6)]Man(b1-4)GlcNAc(b1-4)[Fuc(a1-6)]GlcNAc
Summary of the method: as §1

[21] = target: Gal(b1-4)GlcNAc(b1-3)Gal(b1-4)GlcNAc(b1-3)Gal(b1-4)GlcNAc(b1-3)Gal(b1-4)GlcNAc(b1-3)Gal(b1-4)GlcNAc(b1-2)[Gal(b1-4)GlcNAc(b1-3)Gal(b1-4)GlcNAc(b1-3)Gal(b1-4)GlcNAc(b1-3)Gal(b1-4)GlcNAc(b1-3)Gal(b1-4)GlcNAc(b1-6)]Man(a1-6)[Gal(b1-4)GlcNAc(b1-3)Gal(b1-4)GlcNAc(b1-3)Gal(b1-4)GlcNAc(b1-3)Gal(b1-4)GlcNAc(b1-3)Gal(b1-4)GlcNAc(b1-2)Man(a1-3)]Man(b1-4)GlcNAc(b1-4)[Fuc(a1-6)]GlcNAc
Summary of the method: as §1

[22] = target: Gal(b1-4)GlcNAc(b1-3)Gal(b1-4)GlcNAc(b1-3)Gal(b1-4)GlcNAc(b1-3)Gal(b1-4)GlcNAc(b1-3)Gal(b1-4)GlcNAc(b1-3)Gal(b1-4)GlcNAc(b1-2)Man(a1-3)[Gal(b1-4)GlcNAc(b1-3)Gal(b1-4)GlcNAc(b1-3)Gal(b1-4)GlcNAc(b1-3)Gal(b1-4)GlcNAc(b1-3)Gal(b1-4)GlcNAc(b1-3)Gal(b1-4)GlcNAc(b1-2)Man(a1-6)]Man(b1-4)GlcNAc(b1-4)GlcNAc
Summary of the method: as §1

[23] = target: Gal(b1-4)GlcNAc(b1-3)Gal(b1-4)GlcNAc(b1-3)GalNAc
Summary of the method: as §1

B1: SSR2 (Sclerotium rolfsii) (protein)
chain: MVYKITVRVYQTNPDAFFHPVEKTVWKYANGGTWSITDDQHVLTMGGSGTSGTLRFHADNGESFTATFGVHNYKRWCDIVTNLAADETGMVINQQYYSQKNREEARERQLSNYQVKNAKGRNFQIVYTEAEGNDLHANLIIG
Q: With B1 as the binder, how does the “glycan array binding signal (z-score)” value [1] read?
A: -0.279

Q: And the “glycan array binding signal (z-score)” value [2]?
A: -0.288

Q: And the “glycan array binding signal (z-score)” value [3]?
A: -0.266

Q: And the “glycan array binding signal (z-score)” value [4]?
A: 1.74

Q: What about the “glycan array binding signal (z-score)” value [5] of the same binder?
A: -0.294

Q: And the “glycan array binding signal (z-score)” value [6]?
A: -0.281

Q: What about the “glycan array binding signal (z-score)” value [7] of the same binder?
A: -0.28

Q: What about the “glycan array binding signal (z-score)” value [8] of the same binder?
A: -0.197

Q: What about the “glycan array binding signal (z-score)” value [9] of the same binder?
A: -0.265

Q: What about the “glycan array binding signal (z-score)” value [10] of the same binder?
A: -0.258

Q: And the “glycan array binding signal (z-score)” value [11]?
A: -0.229

Q: What about the “glycan array binding signal (z-score)” value [12] of the same binder?
A: -0.275

Q: What about the “glycan array binding signal (z-score)” value [13] of the same binder?
A: -0.206

Q: What about the “glycan array binding signal (z-score)” value [14] of the same binder?
A: -0.25

Q: What about the “glycan array binding signal (z-score)” value [15] of the same binder?
A: -0.254

Q: What about the “glycan array binding signal (z-score)” value [16] of the same binder?
A: -0.285

Q: And the “glycan array binding signal (z-score)” value [17]?
A: -0.27

Q: And the “glycan array binding signal (z-score)” value [18]?
A: -0.257

Q: And the “glycan array binding signal (z-score)” value [19]?
A: -0.276

Q: What about the “glycan array binding signal (z-score)” value [20] of the same binder?
A: -0.261

Q: And the “glycan array binding signal (z-score)” value [21]?
A: -0.265

Q: What about the “glycan array binding signal (z-score)” value [22] of the same binder?
A: -0.257

Q: And the “glycan array binding signal (z-score)” value [23]?
A: -0.233

Source: the supplement of paper PMC8728848
